Laboratory results: PMC5892938
This is one part of the list. At the low end of the ranking the order means little.

Biological target: GST-SBP-SLBP (stem-loop binding protein) (UniProt Q14493)
Assay: targeted RNA Bind-n-Seq;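 further: DESeq read counts versus GST-SBP nonspecific binding control pulldown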
Details: RBNS binding buffer: 25 mM Tris pH 7.5, 150 mM KCl, 3 mM MgCl2, 0.1% Tween, 0.5 mg/mL BSA, 1 mM DTT; 27 nM protein, 750 pM RNA pool; temperature not stated; high values mean tight binding

Sequence	binding signal (log2 fold change)
GGUCACGUCUCAAUCAACUCCCCAGAGGGGGGGAAAACCCCUUUGCCCUCAAAUUCAACAGCUCGCAGUCAAG	-0.155
GGUCACGUCUCAAUCAACUCUACUUCCAGGGAAAACCCUGGCUUUUUCAACAGCUCGCAGUCAAG	-0.369
GGUCACGUCUCAAUCAACUCAAUUUCCAGGGAAAGCCCUGGCAUAGUCAACAGCUCGCAGUCAAG	-0.207
GGUCACGUCUCAAUCAACUCCAAAGAGGGGGGGAAAACCCCUUUGCCCUCGAAAUCAACAGCUCGCAGUCAAG	0.347
GGUCACGUCUCAAUCAACUCAUCGUCCAGGGAAAGCCCUGGUUAAUUCAACAGCUCGCAGUCAAG	0.179
GGUCACGUCUCAAUCAACUCUAUUUCAGGAGUUUUCUCCUGUUUACUCAACAGCUCGCAGUCAAG	-0.0454
GGUCACGUCUCAAUCAACUCAUCGGAGGGGGGGAAAACCCCUUUACCCUCAUCCUCAACAGCUCGCAGUCAAG	0.12
GGUCACGUCUCAAUCAACUCAAUUUCAGGAGUUUUCUCCUGCUAUUUCAACAGCUCGCAGUCAAG	0.0905
GGUCACGUCUCAAUCAACUCAUUUUCCAGGGAAAGCCCUGGCAUACUCAACAGCUCGCAGUCAAG	-0.0739
GGUCACGUCUCAAUCAACUCAACUUCCAGGGAAAACCCUGGCUAACUCAACAGCUCGCAGUCAAG	0.131
GGUCACGUCUCAAUCAACUCAAAAGAGGGGGGGAAAACCCCUUUACCCUCCAAUUCAACAGCUCGCAGUCAAG	-0.446
GGUCACGUCUCAAUCAACUCAGUUCCAGGAGUUUUCUCCUGUAUUUUCAACAGCUCGCAGUCAAG	-0.105
GGUCACGUCUCAAUCAACUCUUCUCCCAGGGAAACCCCUGGUAUAUUCAACAGCUCGCAGUCAAG	0.0902
GGUCACGUCUCAAUCAACUCAAUCGAGGGGGGGAAAACCCCUUUACCCUCAUCUUCAACAGCUCGCAGUCAAG	-0.114
GGUCACGUCUCAAUCAACUCUACUCCCAGGGAAACCCCUGGUUAUCUCAACAGCUCGCAGUCAAG	-0.0302
GGUCACGUCUCAAUCAACUCUUCCUCCAGGGAAAACCCUGGUAUUUUCAACAGCUCGCAGUCAAG	-0.257
GGUCACGUCUCAAUCAACUCUUCGUCCAGGGAAACCCCUGGCAUUUUCAACAGCUCGCAGUCAAG	-0.146
GGUCACGUCUCAAUCAACUCAUCUCCAGGAGUUUCCUCCUGUUAUCUCAACAGCUCGCAGUCAAG	-0.168
GGUCACGUCUCAAUCAACUCUUUCUCAGGAGUUUACUCCUGUUUUCUCAACAGCUCGCAGUCAAG	-0.0657
GGUCACGUCUCAAUCAACUCUAUUUCAGGAGUUUUCUCCUGCUUAUUCAACAGCUCGCAGUCAAG	-0.195
GGUCACGUCUCAAUCAACUCAUCUUCAGGAGUUUCCUCCUGCUAUCUCAACAGCUCGCAGUCAAG	0.225
GGUCACGUCUCAAUCAACUCUUUCCCCAGGGAAACCCCUGGUUUUCUCAACAGCUCGCAGUCAAG	0.0834
GGUCACGUCUCAAUCAACUCGUUUUCAGGAGUUUUCUCCUGCUUUCUCAACAGCUCGCAGUCAAG	0.0452
GGUCACGUCUCAAUCAACUCCCAAGAGGGGGGGAAAACCCCUUUACCCUCAACAUCAACAGCUCGCAGUCAAG	-0.154
GGUCACGUCUCAAUCAACUCAUCCUCAGGAGUUUGCUCCUGUAUUUUCAACAGCUCGCAGUCAAG	0.0415

Sequence	binding signal (log2 fold change)
GGUCACGUCUCAAUCAACUCCAACGAGGGGGGGAAAACCCCUUUACCCUCACACUCAACAGCUCGCAGUCAAG	-0.197
GGUCACGUCUCAAUCAACUCAACUUCAGGAGUUUGCUCCUGCUUAUUCAACAGCUCGCAGUCAAG	-0.00125
GGUCACGUCUCAAUCAACUCUUCGCCCAGGGAAAGCCCUGGUUAUUUCAACAGCUCGCAGUCAAG	0.464
GGUCACGUCUCAAUCAACUCUAUCUCCAGGGAAAGCCCUGGUAAAUUCAACAGCUCGCAGUCAAG	-0.147
GGUCACGUCUCAAUCAACUCUUCCCCCAGGGAAAACCCUGGCAAUGUCAACAGCUCGCAGUCAAG	-0.132
GGUCACGUCUCAAUCAACUCCUAAGAGGGGGGGAAAACCCCUUUACCCUCCAAAUCAACAGCUCGCAGUCAAG	-0.441
GGUCACGUCUCAAUCAACUCAUCCUCCAGGGAAAGCCCUGGUUUACUCAACAGCUCGCAGUCAAG	0.136
GGUCACGUCUCAAUCAACUCUUCCUCCAGGGAAAACCCUGGUUUUUUCAACAGCUCGCAGUCAAG	-0.0774
GGUCACGUCUCAAUCAACUCUUUCUCCAGGGAAACCCCUGGCUAACUCAACAGCUCGCAGUCAAG	0.228
GGUCACGUCUCAAUCAACUCUCAAGAGGGGGGGAAAACCCCUUUACCCUCCACUUCAACAGCUCGCAGUCAAG	0.175
GGUCACGUCUCAAUCAACUCAUUCCCCAGGGAAAACCCUGGUUAUCUCAACAGCUCGCAGUCAAG	0.152
GGUCACGUCUCAAUCAACUCUCCCGAGGGGGGGAAAACCCCUUUACCCUCACUAUCAACAGCUCGCAGUCAAG	0.31
GGUCACGUCUCAAUCAACUCAUCCUCCAGGGAAAUCCCUGGUUUAUUCAACAGCUCGCAGUCAAG	0.118
GGUCACGUCUCAAUCAACUCCUUAGAGGGGGGGAAAACCCCUUUGCCCUCGUAUUCAACAGCUCGCAGUCAAG	-0.227
GGUCACGUCUCAAUCAACUCAAUCCCAGGAGUUUCCUCCUGCUUAUUCAACAGCUCGCAGUCAAG	0.0271
GGUCACGUCUCAAUCAACUCCUCCGAGGGGGGGAAAACCCCUUUACCCUCAUUCUCAACAGCUCGCAGUCAAG	-0.0397
GGUCACGUCUCAAUCAACUCUAACGAGGGGGGGAAAACCCCUUUACCCUCACACUCAACAGCUCGCAGUCAAG	0.113
GGUCACGUCUCAAUCAACUCUAUCUCCAGGGAAACCCCUGGCAUUUUCAACAGCUCGCAGUCAAG	-0.0319
GGUCACGUCUCAAUCAACUCUUUUUCCAGGGAAAGCCCUGGCUAUCUCAACAGCUCGCAGUCAAG	0.0415
GGUCACGUCUCAAUCAACUCUUCCCCAGGAGUUUUCUCCUGUUUACUCAACAGCUCGCAGUCAAG	0.0444
GGUCACGUCUCAAUCAACUCAUUCUCCAGGGAAAGCCCUGGCAAAUUCAACAGCUCGCAGUCAAG	-0.0502
GGUCACGUCUCAAUCAACUCUCUAGAGGGGGGGAAAACCCCUUUGCCCUCGAUAUCAACAGCUCGCAGUCAAG	-0.366
GGUCACGUCUCAAUCAACUCAUUUUCCAGGGAAAGCCCUGGUAUUCUCAACAGCUCGCAGUCAAG	0.0667
GGUCACGUCUCAAUCAACUCUUUUCCAGGAGUUUACUCCUGUUAUCUCAACAGCUCGCAGUCAAG	-0.0157
GGUCACGUCUCAAUCAACUCAAUCGAGGGGGGGAAAACCCCUUUACCCUCACUAUCAACAGCUCGCAGUCAAG	-0.0652

Sequence	binding signal (log2 fold change)
GGUCACGUCUCAAUCAACUCAUUUCCCAGGGAAAUCCCUGGCAAUUUCAACAGCUCGCAGUCAAG	0.128
GGUCACGUCUCAAUCAACUCCACGGAGGGGGGGAAAACCCCUUUACCCUCAUCAUCAACAGCUCGCAGUCAAG	-0.216
GGUCACGUCUCAAUCAACUCUAUCCCAGGAGUUUACUCCUGCUUAUUCAACAGCUCGCAGUCAAG	0.00902
GGUCACGUCUCAAUCAACUCUAUUCCCAGGGAAAUCCCUGGUUAUCUCAACAGCUCGCAGUCAAG	-0.162
GGUCACGUCUCAAUCAACUCAAAAGAGGGGGGGAAAACCCCUUUGCCCUCCAUAUCAACAGCUCGCAGUCAAG	-0.456
GGUCACGUCUCAAUCAACUCUACUCCAGGAGUUUCCUCCUGUAUUUUCAACAGCUCGCAGUCAAG	-0.0512
GGUCACGUCUCAAUCAACUCUAUAGAGGGGGGGAAAACCCCUUUACCCUCAACCUCAACAGCUCGCAGUCAAG	-0.111
GGUCACGUCUCAAUCAACUCUUUUUCCAGGGAAAACCCUGGUAAUCUCAACAGCUCGCAGUCAAG	-0.00515
GGUCACGUCUCAAUCAACUCUUCGUCAGGAGUUUCCUCCUGCUUUUUCAACAGCUCGCAGUCAAG	0.0524
GGUCACGUCUCAAUCAACUCUACUUCCAGGGAAACCCCUGGCUAUUUCAACAGCUCGCAGUCAAG	-0.0686
GGUCACGUCUCAAUCAACUCAAUCUCAGGAGUUUCCUCCUGUAUUCUCAACAGCUCGCAGUCAAG	0.194
GGUCACGUCUCAAUCAACUCUUUCGCCAGGGAAAACCCUGGGUAUUUCAACAGCUCGCAGUCAAG	-0.138
GGUCACGUCUCAAUCAACUCUUUUCCAGGAGUUUACUCCUGCAAAUUCAACAGCUCGCAGUCAAG	0.0235
GGUCACGUCUCAAUCAACUCAAUUUCCAGGGAAACCCCUGGCAUAUUCAACAGCUCGCAGUCAAG	0.067
GGUCACGUCUCAAUCAACUCAUUUCCCAGGGAAACCCCUGGCAAUUUCAACAGCUCGCAGUCAAG	-0.12
GGUCACGUCUCAAUCAACUCAAUUCCCAGGGAAAACCCUGGUAUACUCAACAGCUCGCAGUCAAG	-0.295
GGUCACGUCUCAAUCAACUCCUUCGAGGGGGGGAAAACCCCUUUACCCUCUCCAUCAACAGCUCGCAGUCAAG	-0.463
GGUCACGUCUCAAUCAACUCAAGGUCAGGAGUUUUCUCCUGCAAAUUCAACAGCUCGCAGUCAAG	0.245
GGUCACGUCUCAAUCAACUCAAUCCCAGGAGUUUACUCCUGUUUACUCAACAGCUCGCAGUCAAG	0.0607
GGUCACGUCUCAAUCAACUCAUCCCCAGGAGUUUACUCCUGCUUUCUCAACAGCUCGCAGUCAAG	0.061
GGUCACGUCUCAAUCAACUCAUUCUCAGGAGUUUACUCCUGUUAACUCAACAGCUCGCAGUCAAG	0.16
GGUCACGUCUCAAUCAACUCAUUCCCAGGAGUUUUCUCCUGUAUACUCAACAGCUCGCAGUCAAG	-0.188
GGUCACGUCUCAAUCAACUCUCUAGAGGGGGGGAAAACCCCUUUGCCCUCACCAUCAACAGCUCGCAGUCAAG	-0.583
GGUCACGUCUCAAUCAACUCUACUCCAGGAGUUUUCUCCUGUUUAUUCAACAGCUCGCAGUCAAG	-0.0432
